# Data: PubChem BioAssay AID1458 (National Center for Advancing Translational Sciences (NCATS), 2008)
# Screen size: about 210,000 compounds; about 5,900 (2.8%) were called active. Inconclusive results, whose numbers are uncertain, are shown with a selection of clear calls. The call rests on the fitted dose curve; in most records, active means well fitted activation curve with a large enough effect; inconclusive means small, poorly fitted or top-dose-only effect; inactive means no such curve, though single readings can be large or run the other way. Potencies beside an inconclusive call are fits to weak or partial responses and may not hold up.
# Assay: qHTS Assay for Enhancers of SMN2 Splice Variant Expression; further: nearly all actives have a fitted effect of over 55% in size; on activity change, positive = activation: % of control where 0% means no effect
# Settings: HEK293 SMN2-luciferase splicing reporter, luminescence, 30-36 h; activity change, positive = activation: at 46.1 µM (top of the series)
# Excerpt: NIH Chemical Genomics Center [NCGC] NIH Molecular Libraries Probe Production centers Network [MLPCN] MLPCN Grant: R03 MH084179-01 Assay Submitter (PI): Elliot Androphy NCGC Assay Overview: Spinal muscular atrophy (SMA) is caused by insufficient levels of the survival motor neuron protein SMN. The SMN locus on chromosome 5q13 contains two inverted copies of SMN called SMN1 and SMN2 which are 99% identical at the amino acid level. SMN1 is a fully functional protein and SMN2 skips exon 7 90% of the time. Skipping of exon 7 produces non-functional protein product. 10% of the SMN2 protein includes exon 7 and is fully functional. In the SMA disease state, mutations in the SMN1 locus are the cause of the disease state. Because only 10% of SMN2 is of the fully functional form, it is not sufficient to overcome the deficiency produced by the loss of the SMN1 product. A therapy that either increase the amount of SMN2 product made or to increase the inclusion of exon 7 has been proposed for the treatment of SMA. We have designed an assay to identify small molecules that can increase the amount of functional SMN2 product by appending a luciferase reporter gene after the native SMN2 gene, such that inclusion of exon 7 in the expressed product places the luciferase sequence in frame, thus generating functional luciferase enzyme.
# NCGC Assay Protocol Summary: This screen utilizes a luciferase reporter gene assay, combining the promoter and splicing based cassettes in tandem with the major portion of the native SMN2 cDNA, and then transfected into HEK293 cells. Compounds that increase luciferase signal presumably enhance expression of the functional SMN2 splice variant. Passaging media contained DMEM w/ glutamax (+phenol red) 10% FCS, 1x pen/strep, 200 ug/ml hygro, 1x sodium pyruvate. Assay media contained DMEM w/ glutamax (-phenol red) 10% FCS, 1x pen strep, 1x pyruvate Sequence, Parameter, Value, Description (1) Cells, […], 2000 cells/well, 1536 TC treated White solid bottom plate (2) Time, 10-12 hours, 37C 5% CO2 (3) Compound, 23 nl, MLSMR Library (4) Control Compound, 23 nL, Sodium butyrate st 4.5mM (final) conc (5) Time, 30-36 hours, 37C 5% CO2 (6) Reagent, 3 ul, One Glo (TM) from Promega (7) Time, 5-15 minutes, Room temp (8) Detector, Viewlux: luminescent read, 60 second integration, high speed 2x binning Keywords: Spinal muscular atrophy, SMA, SMN2, high throughput screening, MLSMR, MLPCN, NIH Roadmap, qHTS and NCGC
# Potency means the concentration at half of the fitted maximal effect; tags describe the fitted curve by direction and shape.
Structure (SMILES),Potency,"activity change, positive = activation"
ClCCCCl,inactive,–
COc1cccc(N2CCN(c3c4c(nc5nncn35)CCC4)CC2)c1,inactive,–
COC(=O)C(O)(c1ccc(NC(=O)NC2CCCCC2)cc1)C(F)(F)F (stereo unspecified),"inconclusive: 22.4 µM [activator, single point]",–
CC1CC(=O)O1 (stereo unspecified),"inconclusive: 35.5 µM [activator, single point]",–
CCSc1nnc([C@@H](N)Cc2c[nH]c3ccccc23)o1,–,inconclusive: 46.7% [activator]
C=Cn1ccnc1P(=S)(c1ccccc1)c1nccn1C=C,"inconclusive: 5.62 µM [activator, single point]",–
COc1ccc(-c2nc(CSCC(=O)N3CCN(c4ccc(F)cc4)CC3)c(C)o2)cc1,inactive,–
CCCCC/C=C\C/C=C\C/C=C\C/C=C\CCCC(=O)NC(C)C(=O)O (stereo unspecified),"inconclusive: 35.5 µM [activator, single point]",–
CC(=O)O.CC(=O)O.[Cd],inactive,–
CCC(C)OC(=O)c1c(N)n(Cc2cccs2)c2nc3ccccc3nc12 (stereo unspecified),"inconclusive: 35.5 µM [activator, partial curve, poor fit]",–
CCOC(=O)c1ccccc1N,inactive,–
CCOC(=O)c1c(N)n(CCN2CCCCC2)c2nc3ccccc3nc12,"inconclusive: 35.5 µM [activator, single point]",–
COCCNc1oc(-c2ccc(OC)cc2)nc1C#N,"inconclusive: 25.1 µM [activator, single point]",–
CCN(CC)c1ccc(C=C2C(=O)N(C)C(=S)N(C)C2=O)o1,"inconclusive: 20 µM [activator, partial curve, poor fit]",–
Nc1c([N+](=O)[O-])cc(F)c(N2CCNCC2)c1Br,"inconclusive: 35.5 µM [activator, single point]",–
CCn1c(O)c(C=NCc2ccccc2)c(=O)[nH]c1=S,"inconclusive: 35.5 µM [activator, single point]",–
Nc1c2c(nc3sc4c(c13)CCCC4)CCCCC2,active: 8.91 µM,–
O=C1NC(=S)NC(=O)C12C(c1ccc(F)cc1)NC(=S)NC2c1ccc(F)cc1 (stereo unspecified),active: 1.58 µM,–
Cc1[nH]c2c(C(F)(F)F)cccc2c1CCN,"inconclusive: 14.1 µM [activator, single point]",–
CCN1C(=O)/C(=C/c2ccc3c(c2)CCN3CCCCl)C(=O)NC1=S,inactive,–
Cc1ccc(-n2sc3ccccc3c2=O)cc1,"inconclusive: 35.5 µM [activator, single point]",–
Cc1ccc(NC(=O)CCNS(=O)(=O)c2ccc3c(c2)oc(=O)n3C)c(C)c1,"inconclusive: 17.8 µM [activator, single point]",–
COc1cc(NC(=O)CN2C3CCC2CC(O)(c2cccnc2)C3)cc(OC)c1 (stereo unspecified),"inconclusive: 7.08 µM [activator, partial curve, poor fit]",–
O=C(NC1(C(F)(F)F)Oc2ccccc2O1)N1CCC2(CC1)OCCO2,"inconclusive: 4.47 µM [activator, partial curve, poor fit]",–
NNC(N)=S,inactive,–
CCN1C(=O)C(=Cc2ccc(C)s2)C(=O)N(CC)C1=S,active: 20 µM,–

Structure (SMILES),Potency,"activity change, positive = activation"
O=C(O)CSCC(=O)O,–,inactive: -1.24% [at 9.22 µM]
CN(C)c1ccc(N)cc1,inactive,–
O=C(Nc1ccc(Cl)c(Cl)c1)O/N=C/c1ccncc1,"inconclusive: 1.26 µM [activator, single point]",–
Nc1ccccc1C(=O)OCCc1ccccc1,active: 14.1 µM,–
c1ccc(OCCSc2nc3ccccc3[nH]2)cc1,"inconclusive: 5.62 µM [activator, partial curve, poor fit]",–
O=C(Nc1ccccc1OC(=O)N1CCOCC1)N1CCOCC1,"inconclusive: 0.447 µM [activator, full curve, poor fit]",–
Cn1c(=O)cc(OCCCC(=O)N2CCC3(CC2)OCCO3)c2ccccc21,"inconclusive: 14.1 µM [activator, partial curve, poor fit]",–
OC1(CN2CCOCC2)C2CC3CC(C2)CC1C3 (stereo unspecified),"inconclusive: 0.0032 µM [activator, full curve, poor fit]",–
Cc1[nH]nc2c1C1(CCC3(CC1)OCCO3)C(C#N)=C(N)O2,"inconclusive: 2.82 µM [activator, full curve, poor fit]",–
CN1C(=O)/C(=C\c2ccc(N3CCCCC3)o2)C(=O)NC1=S,active: 7.08 µM,–
Cc1c(C(=O)N2CCOCC2)sc2nc(-c3ccccc3)cn12,"inconclusive: 17.8 µM [activator, single point]",–
COc1ccccc1N1CCN(Cc2c(F)cccc2F)CC1,"inconclusive: 0.0158 µM [activator, full curve, poor fit]",–
CCC(NC(=O)OC(C)(C)C)C(=O)Oc1cc(C)cc2oc(=O)c3c(c12)CCC3 (stereo unspecified),inactive,–
C[C@@H](O)CN(CCN(C[C@@H](C)O)C[C@@H](C)O)C[C@@H](C)O.O=[N+]([O-])O.[Cu],–,inactive: -14% [at 9.22 µM]
O=C(c1ccccc1)c1ccc(N=Nc2c(O)[nH]c(=O)[nH]c2=O)cc1,inactive,–
CCCCN1C(=O)NC(=O)C2(Cc3cc(C)ccc3N(C)C2)C1=O (stereo unspecified),"inconclusive: 3.16 µM [activator, single point]",–
COc1ccc(-c2nc3ccccc3c(=O)o2)cc1,active: 11.2 µM,–
O=S(=O)(O)F,inactive,–
CCNc1cc(N2CCN(C)CC2)ccc1[N+](=O)[O-],inactive,–
CCCCOc1ccc(CCN)cc1Cl,"inconclusive: 0.631 µM [activator, partial curve, poor fit]",–
C=CCOC(C)=O,inactive,–
CC(=O)Nc1ccc(Cc2nc3ccccc3[nH]2)cc1,"inconclusive: 5.62 µM [activator, single point]",–
O=C(C1CC(c2ccccc2O)=NO1)N1CCC2(CC1)OCCO2 (stereo unspecified),"inconclusive: 35.5 µM [activator, single point]",–
C/C=C/C/C=C/CCC(=O)[C@H]1O[C@H]1C(N)=O,inactive,–
COC(=O)C1=C(N)Oc2c(c(=O)oc3ccccc23)[C@]12C(=O)N(C)c1ccccc12,inactive,–
